{"source": "the supplement of paper PMC8183993", "note": "Several values for one entry are separate records, joined by “and”; a condition that tells them apart may be missing. Equal values may be shown once. Where a name gives a salt, the structure may show the parent alone. ± gives the standard deviation of the averaged measurements. Over roughly 3,200 compounds, “nuclei count (viability) relative to DMSO” has its median near 99; the lowest 2% begin near 16. The list shows a part of the results."}
{"test_system": "U2OS", "assay": "nuclei count (viability) relative to DMSO (% of DMSO); higher = more viable cells", "conditions": "10 µM; 24 h", "procedure": "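Primary image-based screen in U2OS cells: compounds at 10 uM for 24 h, then a 1 h o-propargyl-puromycin (OPP) pulse, click labelling, and high-throughput microscopy. Mean cytoplasmic OPP intensity and nuclei count were normalised to DMSO wells within each plate (DMSO = 100) and averaged over triplicate plates.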"}
{"molecule": "COc1ccccc1N1CCN(CCN(C(=O)C2CCCCC2)c2ccccn2)CC1", "nuclei count": 101}
{"molecule": "CN1C(=O)CC(c2ccccc2)C1=O", "note": "(configuration not stated) [Phensuximide]", "nuclei count": 107}
{"molecule": "CC1CNc2c(cccc2S(=O)(=O)N[C@@H](CCCNC(=N)N)C(=O)N2CC[C@@H](C)C[C@@H]2C(=O)O)C1", "note": "(some centres not stated) [Argatroban]", "nuclei count": "110 ± 1.2"}
{"molecule": "CN(C)CCN(Cc1ccccc1)c1ccccn1", "note": "[Tripelennamine hydrochloride]", "nuclei count": 104}
{"molecule": "Fc1ccc(Cl)cc1-c1nc(Nc2ccncc2)c2nccnc2n1", "nuclei count": 93.8}
{"molecule": "CO[C@H]1C[C@@H]2CC[C@@H](C)[C@@](O)(O2)C(=O)C(=O)N2CCCC[C@H]2C(=O)O[C@H]([C@H](C)C[C@@H]2CC[C@@H](OCCO)[C@H](OC)C2)CC(=O)[C@H](C)/C=C(\\C)[C@@H](O)[C@@H](OC)C(=O)[C@H](C)C[C@H](C)/C=C/C=C/C=C/1C", "note": "[Everolimus (RAD001)]", "nuclei count": "94.1 ± 4.5"}
{"molecule": "C[n+]1cc2c3c(ccc2c2ccc4cc5c(cc4c21)OCO5)OCO3", "note": "[Sanguinarine chloride]", "nuclei count": 12}
{"molecule": "Cc1cc(C)c(Nc2ccnc(Nc3ccc(C#N)cc3)n2)c(C)c1", "note": "[Dapivirine]", "nuclei count": 58.9}
{"molecule": "O=C(c1ccc(Nc2nccc(-c3cc4ccccc4s3)n2)cc1)N1CCC(N2CCCC2)CC1", "nuclei count": 16.6}
{"molecule": "Clc1ccc(CSC(Cn2ccnc2)c2ccc(Cl)cc2Cl)cc1", "note": "(configuration not stated) [Sulconazole nitrate]", "nuclei count": 88.5}
{"molecule": "Nc1ncnc2c1ncn2[C@@H]1O[C@H](CO)[C@@H](O)[C@H]1O", "note": "[Adenosine (Adenocard)]", "nuclei count": 93.8}
{"molecule": "CCCN(CCC)S(=O)(=O)c1ccc(C(=O)O)cc1", "note": "[Probenecid]", "nuclei count": 93.4}
{"molecule": "CCNC(=O)Nc1ccc(-c2nc3c(c(N4CCOC[C@@H]4C)n2)CCN(C2COC2)C3)cc1", "nuclei count": "75.4 ± 5.5"}
{"molecule": "C[C@]12CC[C@@H]3c4ccc(O)cc4CC[C@H]3[C@@H]1CC[C@@H]2O", "note": "[Estradiol-17 beta]", "nuclei count": 98.8}
{"molecule": "C[C@]12CC[C@@H]3c4ccc(O)cc4CC[C@H]3[C@@H]1CC[C@@H]2O", "note": "[17b-Estradiol]", "nuclei count": 90.9}
{"molecule": "C[C@]12CC[C@@H]3c4ccc(O)cc4CC[C@H]3[C@@H]1CC[C@@H]2O", "note": "[Estradiol]", "nuclei count": 101}
{"molecule": "Cc1c(NC(=O)N2CCOCC2)ccc2c1c1ccccc1n2C(C)C", "nuclei count": 94.6}
{"molecule": "O=C(O)c1ccc(-c2ccc3cc(O)c(C45CC6CC(CC(C6)C4)C5)cc3c2)cc1", "nuclei count": 105}
{"molecule": "Cc1c(C2CCN(CCc3ccccc3)CC2)noc1-c1ccc(Cl)cc1", "note": "[L-741,742 hydrochloride]", "nuclei count": 102}
{"molecule": "C[C@H](NC(=O)/C(C#N)=C/c1cccc(Br)n1)c1ccccc1", "nuclei count": "7.49 ± 1.2"}
{"molecule": "CC(C)c1ccc(NC(=O)Cn2cnc3c2c(=O)n(C)c(=O)n3C)cc1", "nuclei count": 103}
{"molecule": "CCOC(=O)CCNc1cc(N2CCc3ccccc3CC2)nc(-c2ccccn2)n1", "nuclei count": "64.1 and 62.6"}
{"molecule": "COc1ccc2[nH]c([S+]([O-])Cc3ncc(C)c(OC)c3C)nc2n1", "note": "(configuration not stated) [Tenatoprazole]", "nuclei count": 92.9}
{"molecule": "CN(C)CCOC(c1ccccc1)c1ccccc1", "note": "[Diphenhydramine hydrochloride]", "nuclei count": 106}
{"molecule": "NC(Cc1cc(I)c(Oc2cc(I)c(O)c(I)c2)c(I)c1)C(=O)O", "note": "(configuration not stated) [Thyroxine (L)]", "nuclei count": 105}
{"molecule": "OC(CN1CCC(Cc2ccc(F)cc2)CC1)c1ccc(Cl)cc1", "note": "(configuration not stated) [Eliprodil]", "nuclei count": 103}
{"molecule": "CN(C)CC/C=C1/c2ccccc2Sc2ccc(Cl)cc21", "note": "[Chlorprothixene hydrochloride]", "nuclei count": 106}
{"molecule": "CCCS(=O)(=O)c1nc(NC2CC2)cc(-c2ccc3c(ccn3C3CC(C)(C)NC(C)(C)C3)c2)n1", "nuclei count": 8.4}
{"molecule": "Cn1cc(CNCC2CCN(c3ncc(C(=O)NO)cn3)CC2)c2ccccc21", "nuclei count": 18.9}
{"molecule": "CC(=O)[C@H]1CC[C@H]2[C@@H]3CCC4=CC(=O)CC[C@]4(C)[C@H]3CC[C@]12C", "note": "[Progesterone]", "nuclei count": "101 ± 6.7"}
{"molecule": "CC(=O)[C@H]1CC[C@H]2[C@@H]3CCC4=CC(=O)CC[C@]4(C)[C@H]3CC[C@]12C", "note": "[Progesterone (Prometrium)]", "nuclei count": 108}
{"molecule": "Nc1nc(F)nc2c1ncn2[C@@H]1O[C@H](CO)[C@@H](O)[C@@H]1O", "note": "[Fludarabine (Fludara)]", "nuclei count": 106}
{"molecule": "Nc1nc(F)nc2c1ncn2[C@@H]1O[C@H](CO)[C@@H](O)[C@@H]1O", "note": "[Fludarabine]", "nuclei count": "96.9 ± 8"}
{"molecule": "CC[C@H]1OC(=O)[C@H](C)[C@@H](O[C@H]2C[C@@](C)(OC)[C@@H](O)[C@H](C)O2)[C@H](C)[C@@H](O[C@@H]2O[C@H](C)C[C@H](N(C)C)[C@H]2O)[C@](C)(O)C[C@@H](C)/C(=N\\OCOCCOC)[C@H](C)[C@@H](O)[C@]1(C)O", "note": "[Roxithromycin (Roxl-150)]", "nuclei count": 102}
{"molecule": "CC[C@H]1OC(=O)[C@H](C)[C@@H](O[C@H]2C[C@@](C)(OC)[C@@H](O)[C@H](C)O2)[C@H](C)[C@@H](O[C@@H]2O[C@H](C)C[C@H](N(C)C)[C@H]2O)[C@](C)(O)C[C@@H](C)/C(=N\\OCOCCOC)[C@H](C)[C@@H](O)[C@]1(C)O", "note": "[Roxithromycin]", "nuclei count": 103}
{"molecule": "O=C(NCCS(=O)(=O)c1ccc(C(F)(F)F)cn1)c1ccc(Cl)cc1", "nuclei count": 105}
{"molecule": "CC(C)CC(=O)Nc1n[nH]c2c1CN(C(=O)C1CCN(C)CC1)C2(C)C", "nuclei count": 41.9}
{"molecule": "C=C1CC[C@H](O)C/C1=C/C=C1\\CCC[C@]2(C)[C@@H]([C@H](C)CCCC(C)(C)O)CC[C@@H]12", "note": "[Calcifediol]", "nuclei count": 105}
{"molecule": "C=C1CC[C@H](O)C/C1=C/C=C1\\CCC[C@]2(C)[C@@H]([C@H](C)CCCC(C)(C)O)CC[C@@H]12", "note": "[25-Hydroxyvitamin D3]", "nuclei count": 104}
{"molecule": "COc1ccc(NC(=O)c2cc(OCCCN(C)C)nn2Cc2ccccc2)cc1", "note": "[CFM 1571 hydrochloride]", "nuclei count": 99}
{"molecule": "OC(c1ccccc1)C1CCN(CCc2ccccc2)CC1", "note": "(configuration not stated)", "nuclei count": 99.4}
{"molecule": "Nc1nc(=O)c2nc(CNc3ccc(C(=O)N[C@@H](CCC(=O)O)C(=O)O)cc3)cnc2[nH]1", "note": "[Folic acid]", "nuclei count": 102}
{"molecule": "CC(=O)N[C@@H](CC(C)C)C(=O)O", "note": "[N-Acetyl-L-leucine]", "nuclei count": 107}
{"molecule": "Nc1nc(Cl)nc2c1ncn2[C@@H]1O[C@H](CO)[C@@H](O)[C@@H]1F", "note": "[Clofarabine]", "nuclei count": 54.8}
{"molecule": "Cc1cc(C)c(N(Cc2ccccc2)S(=O)(=O)c2ccc(OCCNC(=O)c3cc4ccccc4o3)cc2)c(C(=O)NO)c1", "nuclei count": 94.5}
{"molecule": "COc1ccc(-c2cc(=O)c3c(O)cc(O)cc3o2)cc1O", "note": "[Diosmetin (Luteolin 4-methyl ether)]", "nuclei count": 96.1}
{"molecule": "CN(C)Cc1c(C(=O)NCCOc2ccc(C(=O)NO)cc2)oc2ccccc12", "nuclei count": 28.6}
{"molecule": "Nc1nc(=S)c2ncn([C@@H]3O[C@H](CO)[C@@H](O)[C@H]3O)c2[nH]1", "note": "[Thioguanosine]", "nuclei count": 50.1}
{"molecule": "O=C1CN2Cc3c(ccc(Cl)c3Cl)N=C2N1", "note": "[Anagrelide HCl]", "nuclei count": 102}
{"molecule": "C[C@H](NC(=O)c1sccc1OCc1ccc(Cl)cc1)c1ccccc1", "nuclei count": 101}
{"molecule": "CO[C@H]1/C=C/O[C@@]2(C)Oc3c(C)c(O)c4c(c3C2=O)C2=NC3(CCN(CC(C)C)CC3)NC2=C(NC(=O)/C(C)=C\\C=C\\[C@H](C)[C@H](O)[C@@H](C)[C@@H](O)[C@@H](C)[C@H](OC(C)=O)[C@@H]1C)C4=O", "note": "[Rifabutin]", "nuclei count": 103}
{"molecule": "CO[C@H]1/C=C/O[C@@]2(C)Oc3c(C)c(O)c4c(c3C2=O)C2=NC3(CCN(CC(C)C)CC3)NC2=C(NC(=O)/C(C)=C\\C=C\\[C@H](C)[C@H](O)[C@@H](C)[C@@H](O)[C@@H](C)[C@H](OC(C)=O)[C@@H]1C)C4=O", "note": "[Rifabutin (Mycobutin)]", "nuclei count": 107}
{"molecule": "O=c1cc(-c2ccc(O)cc2)oc2cc(O)cc(O)c12", "note": "[Apigenin]", "nuclei count": "95.3 ± 2.9"}
{"molecule": "c1cnc2cc3c(cc2n1)[C@@H]1CNC[C@H]3C1", "note": "[Varenicline tartrate]", "nuclei count": 106}
{"molecule": "C[C@@H](N)[C@H]1CC[C@H](C(=O)Nc2ccncc2)CC1", "nuclei count": "106 and 101"}
{"molecule": "O=C(Cn1ccnc1[N+](=O)[O-])NCCO", "note": "[Etanidazole]", "nuclei count": 76.9}
{"molecule": "CCc1cc(C(C)=O)c(O)cc1OCCCCCC(C)(C)c1nn[nH]n1", "nuclei count": 98.6}
{"molecule": "COc1c(O[C@@H]2O[C@H](CO)[C@@H](O)[C@H](O)[C@H]2O)cc2c(c1OC)-c1ccc(SC)c(=O)cc1[C@@H](NC(C)=O)CC2", "note": "[Thiocolchicoside]", "nuclei count": 113}
{"molecule": "O=C(CCCCCCNC(=O)c1cnc(N(c2ccccc2)c2ccccc2)nc1)NO", "note": "[Rocilinostat (ACY-1215)]", "nuclei count": 47.1}
{"molecule": "O=c1ncccn1[C@@H]1O[C@H](CO)[C@@H](O)[C@H]1O", "note": "[Zebularine]", "nuclei count": "99.3 ± 1.6"}
{"molecule": "CN(C)CCN(Cc1cccs1)c1ccccn1", "note": "[Methapyrilene hydrochloride]", "nuclei count": 115}
{"molecule": "CC(C)n1nc(-c2cc3cc(O)ccc3[nH]2)c2c(N)ncnc21", "note": "[Torkinib (PP242)]", "nuclei count": 77.5}
{"molecule": "NC(=O)N1c2ccccc2C=Cc2ccccc21", "note": "[Carbamazepine]", "nuclei count": 112}
{"molecule": "N#Cc1ccccc1OCC(O)CNCCNC(=O)Nc1ccccc1", "note": "(configuration not stated)", "nuclei count": 95.5}
{"molecule": "CNc1nc(Nc2cnn([C@H]3CCN(C4COC4)C[C@@H]3F)c2Cl)ncc1C(F)(F)F", "nuclei count": 99.9}
{"molecule": "Clc1ccc(C(Cn2ccnc2)OCc2c(Cl)cccc2Cl)c(Cl)c1", "note": "(configuration not stated) [Isoconazole]", "nuclei count": 104}
{"molecule": "CC(=O)c1ccc(S(=O)(=O)NC(=O)NC2CCCCC2)cc1", "note": "[Acetohexamide]", "nuclei count": 104}
{"molecule": "CCSC(=N)N", "note": "[EIT hydrobromide]", "nuclei count": 91.5}
{"molecule": "CCCCC[C@H](O)/C=C/[C@@H]1[C@@H](C/C=C\\CCCC(=O)O)[C@@H](O)C[C@H]1O", "note": "[Dinoprost trometamol]", "nuclei count": 101}
{"molecule": "COc1ccc(CN(CCN(C)C)c2ccccn2)cc1", "note": "[Pyrilamine maleate]", "nuclei count": 102}
{"molecule": "COc1ccc(CN(CCN(C)C)c2ccccn2)cc1", "note": "[Mepyramine maleate]", "nuclei count": 104}
{"molecule": "CCCNC(C)C(=O)Nc1ccccc1C", "note": "(configuration not stated) [Prilocaine hydrochloride]", "nuclei count": 102}
